The supplement of paper PMC8728848
The other results are listed elsewhere or left out.

Tests used:
Assay in all cases: glycan array binding signal (z-score within array); higher = stronger binding
Details in all cases: glycan notation: IUPAC condensed, linker removed
[1] = biological target: Gal(b1-4)GlcNAc(b1-2)[Gal(b1-4)GlcNAc(b1-4)]Man(a1-3)[Gal(b1-4)GlcNAc(b1-2)Man(a1-6)]Man(b1-4)GlcNAc(b1-4)GlcNAc
Outline: (§1)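 From the Consortium for Functional Glycomics database, 3228 arrays were curated, keeping only those whose protein sequence was available. Binding is given as a within-array Z-score averaged across arrays sharing a protein sequence and across linkers. Negative Z-scores can be read as non-binding.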

[2] = biological target: Gal(b1-4)GlcNAc(b1-2)[Gal(b1-4)GlcNAc(b1-4)]Man(a1-3)[Gal(b1-4)GlcNAc(b1-2)[Gal(b1-4)GlcNAc(b1-6)]Man(a1-6)]Man(b1-4)GlcNAc(b1-4)GlcNAc
Outline: as §1

[3] = biological target: Gal(b1-4)GlcNAc(b1-2)[Gal(b1-4)GlcNAc(b1-4)]Man(a1-3)[GlcNAc(b1-4)][Gal(b1-4)GlcNAc(b1-2)Man(a1-6)]Man(b1-4)GlcNAc(b1-4)GlcNAc
Outline: as §1

[4] = biological target: Gal(b1-4)GlcNAc(b1-2)[Gal(b1-4)GlcNAc(b1-4)]Man(a1-3)[GlcNAc(b1-4)][Gal(b1-4)GlcNAc(b1-2)[Gal(b1-4)GlcNAc(b1-6)]Man(a1-6)]Man(b1-4)GlcNAc(b1-4)GlcNAc
Outline: as §1

[5] = biological target: Gal(b1-4)GlcNAc(b1-2)[Gal(b1-4)GlcNAc(b1-6)]Man(a1-6)[Gal(b1-4)GlcNAc(b1-2)Man(a1-3)]Man(b1-4)GlcNAc(b1-4)GlcNAc
Outline: as §1

[6] = biological target: Gal(b1-4)GlcNAc(b1-2)[Gal(b1-4)GlcNAc(b1-6)]Man(a1-6)[Gal(b1-4)GlcNAc(b1-2)Man(a1-3)]Man(b1-4)GlcNAc(b1-4)[Fuc(a1-6)]GlcNAc
Outline: as §1

[7] = biological target: Gal(b1-4)GlcNAc(b1-2)[Gal(b1-4)GlcNAc(b1-6)]Man(a1-6)[GlcNAc(b1-4)][Gal(b1-4)GlcNAc(b1-2)Man(a1-3)]Man(b1-4)GlcNAc(b1-4)GlcNAc
Outline: as §1

[8] = biological target: Gal(b1-4)GlcNAc(b1-2)[Gal(b1-4)GlcNAc(b1-6)]Man(a1-6)[GlcNAc(b1-4)][Gal(b1-4)GlcNAc(b1-2)[Gal(b1-4)GlcNAc(b1-4)]Man(a1-3)]Man(b1-4)GlcNAc(b1-4)[Fuc(a1-6)]GlcNAc
Outline: as §1

[9] = biological target: Gal(b1-4)GlcNAc(b1-3)Gal(b1-3)GalNAc
Outline: as §1

[10] = biological target: Gal(b1-4)GlcNAc(b1-3)Gal(b1-3)GlcNAc
Outline: as §1

[11] = biological target: Gal(b1-4)GlcNAc(b1-3)Gal(b1-4)Glc
Outline: as §1

[12] = biological target: Gal(b1-4)GlcNAc(b1-3)Gal(b1-4)GlcNAc
Outline: as §1

[13] = biological target: Gal(b1-4)GlcNAc(b1-3)Gal(b1-4)GlcNAc(b1-2)Man(a1-3)[Gal(b1-4)GlcNAc(b1-3)Gal(b1-4)GlcNAc(b1-2)Man(a1-6)]Man(b1-4)GlcNAc(b1-4)GlcNAc
Outline: as §1

[14] = biological target: Gal(b1-4)GlcNAc(b1-3)Gal(b1-4)GlcNAc(b1-2)Man(a1-3)[Gal(b1-4)GlcNAc(b1-3)Gal(b1-4)GlcNAc(b1-2)Man(a1-6)]Man(b1-4)GlcNAc(b1-4)[Fuc(a1-6)]GlcNAc
Outline: as §1

[15] = biological target: Gal(b1-4)GlcNAc(b1-3)Gal(b1-4)GlcNAc(b1-2)[Gal(b1-4)GlcNAc(b1-3)Gal(b1-4)GlcNAc(b1-6)]Man(a1-6)[Gal(b1-4)GlcNAc(b1-3)Gal(b1-4)GlcNAc(b1-2)Man(a1-3)]Man(b1-4)GlcNAc(b1-4)GlcNAc
Outline: as §1

[16] = biological target: Gal(b1-4)GlcNAc(b1-3)Gal(b1-4)GlcNAc(b1-2)[Gal(b1-4)GlcNAc(b1-3)Gal(b1-4)GlcNAc(b1-6)]Man(a1-6)[Gal(b1-4)GlcNAc(b1-3)Gal(b1-4)GlcNAc(b1-2)Man(a1-3)]Man(b1-4)GlcNAc(b1-4)[Fuc(a1-6)]GlcNAc
Outline: as §1

[17] = biological target: Gal(b1-4)GlcNAc(b1-3)Gal(b1-4)GlcNAc(b1-3)Gal(b1-4)GlcNAc
Outline: as §1

[18] = biological target: Gal(b1-4)GlcNAc(b1-3)Gal(b1-4)GlcNAc(b1-3)Gal(b1-4)GlcNAc(b1-2)Man(a1-3)[Gal(b1-4)GlcNAc(b1-3)Gal(b1-4)GlcNAc(b1-3)Gal(b1-4)GlcNAc(b1-2)Man(a1-6)]Man(b1-4)GlcNAc(b1-4)GlcNAc
Outline: as §1

[19] = biological target: Gal(b1-4)GlcNAc(b1-3)Gal(b1-4)GlcNAc(b1-3)Gal(b1-4)GlcNAc(b1-2)Man(a1-3)[Gal(b1-4)GlcNAc(b1-3)Gal(b1-4)GlcNAc(b1-3)Gal(b1-4)GlcNAc(b1-2)Man(a1-6)]Man(b1-4)GlcNAc(b1-4)[Fuc(a1-6)]GlcNAc
Outline: as §1

[20] = biological target: Gal(b1-4)GlcNAc(b1-3)Gal(b1-4)GlcNAc(b1-3)Gal(b1-4)GlcNAc(b1-2)[Gal(b1-4)GlcNAc(b1-3)Gal(b1-4)GlcNAc(b1-3)Gal(b1-4)GlcNAc(b1-6)]Man(a1-6)[Gal(b1-4)GlcNAc(b1-3)Gal(b1-4)GlcNAc(b1-3)Gal(b1-4)GlcNAc(b1-2)Man(a1-3)]Man(b1-4)GlcNAc(b1-4)[Fuc(a1-6)]GlcNAc
Outline: as §1

[21] = biological target: Gal(b1-4)GlcNAc(b1-3)Gal(b1-4)GlcNAc(b1-3)Gal(b1-4)GlcNAc(b1-3)Gal(b1-4)GlcNAc(b1-2)Man(a1-3)[Gal(b1-4)GlcNAc(b1-3)Gal(b1-4)GlcNAc(b1-3)Gal(b1-4)GlcNAc(b1-3)Gal(b1-4)GlcNAc(b1-2)Man(a1-6)]Man(b1-4)GlcNAc(b1-4)GlcNAc
Outline: as §1

[22] = biological target: Gal(b1-4)GlcNAc(b1-3)Gal(b1-4)GlcNAc(b1-3)Gal(b1-4)GlcNAc(b1-3)Gal(b1-4)GlcNAc(b1-2)Man(a1-3)[Gal(b1-4)GlcNAc(b1-3)Gal(b1-4)GlcNAc(b1-3)Gal(b1-4)GlcNAc(b1-3)Gal(b1-4)GlcNAc(b1-2)Man(a1-6)]Man(b1-4)GlcNAc(b1-4)[Fuc(a1-6)]GlcNAc
Outline: as §1

[23] = biological target: Gal(b1-4)GlcNAc(b1-3)Gal(b1-4)GlcNAc(b1-3)Gal(b1-4)GlcNAc(b1-3)Gal(b1-4)GlcNAc(b1-2)[Gal(b1-4)GlcNAc(b1-3)Gal(b1-4)GlcNAc(b1-3)Gal(b1-4)GlcNAc(b1-3)Gal(b1-4)GlcNAc(b1-6)]Man(a1-6)[Gal(b1-4)GlcNAc(b1-3)Gal(b1-4)GlcNAc(b1-3)Gal(b1-4)GlcNAc(b1-3)Gal(b1-4)GlcNAc(b1-2)Man(a1-3)]Man(b1-4)GlcNAc(b1-4)[Fuc(a1-6)]GlcNAc
Outline: as §1

B1: Jacalin (Artocarpus integrifolia) (protein)
chain: MAYSSLLSLSVLALLFSISSADTRKWFLANGINQNPIGIIEAAVGVSEDLLNLNGMEAKNDEQSGISQTVIVGPWGAKVSTSSNGKAFDDGAFTGIREINLSYNKETAIGDFQVVYDLNGSPYVGQNHKSFITGFTPVKISLDFPSEYIMEVSGYTGNVSGYVVVRSLTFKTNKKTYGPYGVTSGTPFNLPIENGLIVGFKGSIGYWLDYFSMYLSL
glycan array binding signal (z-score) [1]: -0.262
glycan array binding signal (z-score) [2]: -0.279
glycan array binding signal (z-score) [3]: -0.247
glycan array binding signal (z-score) [4]: -0.272
glycan array binding signal (z-score) [5]: -0.269
glycan array binding signal (z-score) [6]: 0.164
glycan array binding signal (z-score) [7]: -0.267
glycan array binding signal (z-score) [8]: -0.268
glycan array binding signal (z-score) [9]: 1.06
glycan array binding signal (z-score) [10]: -0.271
glycan array binding signal (z-score) [11]: -0.275
glycan array binding signal (z-score) [12]: -0.291
glycan array binding signal (z-score) [13]: 0.045
glycan array binding signal (z-score) [14]: 0.26
glycan array binding signal (z-score) [15]: -0.2
glycan array binding signal (z-score) [16]: 0.097
glycan array binding signal (z-score) [17]: -0.284
glycan array binding signal (z-score) [18]: 0.053
glycan array binding signal (z-score) [19]: 0.144
glycan array binding signal (z-score) [20]: -0.041
glycan array binding signal (z-score) [21]: -0.217
glycan array binding signal (z-score) [22]: 0.12
glycan array binding signal (z-score) [23]: -0.081
